Experimental data reported in PubChem BioAssay AID651820 (National Center for Advancing Translational Sciences (NCATS), 2012).
The campaign covered roughly 340,000 compounds. About 12,000 (3.5%) were called active. Inconclusive results, whose numbers are uncertain, are shown with a selection of clear calls. Calls follow the shape of the dose curve; as a rule, active = well fitted inhibition curve with a large enough effect; inconclusive = small, poorly fitted or top-dose-only effect, or another doubt; inactive = no such curve, though single readings can be large or run the other way. Potencies of inconclusive entries are left out as doubtful fits.

Test: qHTS Assay for Inhibitors of Hepatitis C Virus (HCV)
Conditions: Huh7.5.1 HCVcc-Cre (HCVcc is cell-culture hepatitis C virus) infection, luciferase reporter, 44 h; activity change, negative = inhibition: at 41.8 µM (top of the series) unless noted
How it was run: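 After 44 h co-culture of compound, cells and HCVcc-Cre (~0.5 moi), substrate is added for 15 min at room temperature and luciferase measured over 15 sec. Cells were seeded at 1,000/well and pre-cultured 4 h.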
% is scaled to controls: 0 for no effect and ±100 for the full control effect; potency is read from the fitted curve at half-maximal effect; tags tell the direction and shape of the fitted curve.

Compound | Potency | activity change, negative = inhibition
CCC1=Nc2cc(C(=O)NCCN3CCCC3)ccc2Sc2ccccc21 | inconclusive [inhibitor, partial curve] | –
COc1ccccc1NS(=O)(=O)c1cc(NC(=O)c2cccc(S(=O)(=O)N(C)C)c2)ccc1N1CCOCC1 | inconclusive [inhibitor, partial curve] | –
COc1ccc(CCNC(=O)C2CCN(C(=O)c3ccc(C(C)(C)C)cc3)CC2)cc1 | inconclusive [inhibitor, single point] | –
C=CCn1c(SC(F)F)nc2scc(-c3ccco3)c2c1=O | inconclusive [inhibitor, partial curve] | –
CCCNC(=O)Cn1cnc2sc(C(=O)Nc3cc(OC)c(OC)c(OC)c3)c(C)c2c1=O | inconclusive [inhibitor, partial curve] | –
COc1ccc(C)cc1NC(=O)C(OC(=O)c1ccc(Cl)c(S(=O)(=O)N(C)c2ccccc2)c1)c1ccccc1 (stereo not drawn) | inconclusive [inhibitor, single point] | –
CCN(CC(=O)Nc1sc2c(c1C#N)CCC(C)C2)Cc1nc2ccccc2c(=O)[nH]1 (stereo not drawn) | inconclusive [inhibitor, partial curve] | –
CCC(C)NC(=O)C1CCCN1S(=O)(=O)c1ccc(Cl)cc1 (stereo not drawn) | inconclusive [inhibitor, partial curve] | –
COc1ccccc1-n1cnc2cc(NS(=O)(=O)c3ccccc3)ccc21 | active: 22.4 µM | –
O=C(c1sc2ccccc2c1Cl)N(Cc1ccccc1Cl)C1CCS(=O)(=O)C1 (stereo not drawn) | inconclusive [inhibitor, single point] | –
Cc1cccc(OCc2nnc(SCC(=O)Nc3cccc(C(=O)N4CCOCC4)c3)n2C)c1C | inconclusive [inhibitor, single point] | –
Cc1cccn2cc(CSc3nnc(Nc4ccc(C(C)C)cc4)s3)nc12 | inconclusive [inhibitor, single point] | –
CCCOc1ccc(N2C(=O)CC(N(Cc3ccco3)C(=O)CCC(=O)O)C2=O)cc1 (stereo not drawn) | inconclusive [inhibitor, single point] | –
O=C1CCCC/C1=C\Nc1ccc(C(=O)O)c(O)c1 | – | inactive: 8.97%
Clc1ccc(CCC(Cn2ccnc2)Sc2c(Cl)cccc2Cl)cc1 (stereo not drawn) | inconclusive [inhibitor, full curve] | –
CCCS(=O)(=O)N1CCN(CCN2C(=O)c3cccc4cccc(c34)C2=O)CC1 | inconclusive [inhibitor, partial curve] | –
Cc1cncn1CCc1nc2c3ccccc3nc(SCC(=O)Nc3cccc(Cl)c3)n2n1 | inconclusive [inhibitor, full curve] | –
CC(=O)c1cc2c(cc1NC(=O)CN1CCCCCCC1)OCO2 | inconclusive [inhibitor, single point] | –
Cc1ccc(NC(=O)CN2C(=O)NC(Cc3c[nH]c4ccccc34)C2=O)cc1S(=O)(=O)N1CCCCC1 (stereo not drawn) | active: 11.2 µM | –
COc1cc(C2Nc3ccc4ccccc4c3C3=C2C(=O)CC(C)(C)C3)ccc1OCC(=O)O (stereo not drawn) | – | inactive: 12.8%
CCOc1ccc(C(=O)Nc2cccc(C(=O)O)c2)cc1Cl | – | inactive: 12.2%

Compound | Potency | activity change, negative = inhibition
CC(Oc1ccc(Br)cc1Cl)C(=O)Nc1ccncc1 (stereo not drawn) | inconclusive [inhibitor, single point] | –
CC(=O)OC(c1nc2ccccc2c(=O)n1C1CC2(OC1=O)c1ccccc1N1C(=O)C(C)(C)N(O)C12)C(C)C (stereo not drawn) | inconclusive [inhibitor, full curve] | –
COc1ccc(C2=Nn3c(nnc3-c3ccccc3OC)SC2)cc1OC | inconclusive [inhibitor, partial curve] | –
C[C@@]12C(=O)N(Cc3ccccc3)CC(=O)N1[C@H]1c3cc(Cl)ccc3OC[C@@H]1[C@@H]2c1ccccc1 | inconclusive [inhibitor, partial curve] | –
CCOc1ccc(CN2CCC(C(=O)N3CCN(c4ccccc4F)CC3)CC2)cc1OC | inconclusive [inhibitor, partial curve] | –
COc1ccccc1OCCOc1ccc(/C=C2\C(=N)N3N=C(C)SC3=NC2=O)cc1 | inconclusive [inhibitor, single point] | –
O=C1/C(=C/c2ccccc2Cl)N2CCC1CC2 | – | inactive: -18.7%
C/C(CC(=O)Nc1cc(Cl)ccc1Cl)=N\NC(N)=S | inconclusive [inhibitor, full curve, poor fit] | –
CC(Nc1nc(-c2ccc(F)cc2)cs1)c1nc2cc(Cl)c(N3CCCCC3)cc2n1CCOCCO (stereo not drawn) | inconclusive [inhibitor, single point] | –
Cc1c(C(=O)NCc2c(F)cc(F)cc2F)oc2ccc(S(=O)(=O)N3CCOCC3)cc12 | inconclusive [inhibitor, single point] | –
COc1ccccc1C(=O)N(Cc1ccco1)C1CCS(=O)(=O)C1 (stereo not drawn) | – | inactive: 20.4%
Brc1ccc(-c2cn3nc4c(nc3n2)CCCC4)cc1 | – | inactive: -15.1%
COc1ccc(-c2cn(-c3ccc(C)cc3C)c(=S)[nH]2)cc1OC | inconclusive [inhibitor, single point] | –
CCOc1ccc(S(=O)(=O)N2CCC(C(=O)Nc3cc(S(C)(=O)=O)ccc3Cl)CC2)cc1 | – | inactive: 0.314%
CCCc1nc2ccccc2c(=O)n1/N=C/c1ccc(O)cc1 | inconclusive [inhibitor, partial curve] | –
C=CCn1c(O)c(C(CC)=Nc2ccc(N(CC)CC)cc2)c(=O)[nH]c1=O | inconclusive [inhibitor, single point] | –
Cc1ccccc1-c1nc(-c2ccc(NC(=O)c3ccc4c(c3)OCO4)cc2)no1 | inconclusive [inhibitor, partial curve] | –
O=C(CNC(=O)c1cccc([N+](=O)[O-])c1)OCCCC(=O)c1ccc(F)cc1 | – | inactive: 8.94%
CSc1cccc(NC(=O)C2C3C=CC4(O3)C2C(=O)N(CCCN2CCOCC2)C4C(=O)NC2CCCCC2)c1 (stereo not drawn) | – | inactive: -7.28%
Cn1c(=O)n(Cc2ccc(F)cc2)c(=O)c2c1nc1n2CCN1Cc1ccco1 | inconclusive [inhibitor, full curve, poor fit] | –
O=S(=O)(c1ccc(Oc2ncnc3scc(-c4ccccc4)c23)cc1)N1CCOCC1 | active: 10 µM | –

Compound | Potency | activity change, negative = inhibition
O=C(COc1ccc(Cl)cc1Br)NC(=O)NC1CCCC1 | inconclusive [inhibitor, single point] | –
Cc1ccc(-n2c(=O)c3cc4c(=O)n(-c5ccc(C)c(C)c5)c(=O)c4c(C(=O)c4ccc(C(=O)O)cc4)c3c2=O)cc1C | inconclusive [inhibitor, single point] | –
N#CCn1cc(/C=N/NC(=O)c2cc3c(ccc4ccccc43)o2)c2ccccc21 | inconclusive [inhibitor, partial curve, poor fit] | –
O=[N+]([O-])c1ccc(N/N=C/c2c[nH]c3ccccc23)c(S(=O)(=O)Nc2ccc(Cl)cc2)c1 | inconclusive [inhibitor, partial curve, poor fit] | –
COc1ccccc1Cn1c(=S)[nH]c2cc(C(=O)NCCN3CCOCC3)ccc2c1=O | inconclusive [inhibitor, partial curve] | –
N#C/C(=C\c1coc2ccc(O)cc2c1=O)C(=O)Nc1nc2ccccc2s1 | inconclusive [inhibitor, single point] | –
COc1cccc(NC(=O)CN(C)C(=O)/C=C/c2cn(-c3ccccc3)nc2-c2cccs2)c1 | inconclusive [inhibitor, single point] | –
COc1ccc(-c2ccccc2)cc1NC(=O)c1cccs1 | active: 7.94 µM | –
Cc1ccc(NC(=O)C2CCCN2C(=O)Oc2ccccc2)cc1 (stereo not drawn) | inconclusive [inhibitor, partial curve] | –
CCOC(=O)/C=C/c1ccc(C(F)(F)F)cc1S(=O)(=O)NC(C)(C)C | – | inactive: 4.83%
NC(=O)N=Nc1c(O)n(Cc2ccccc2)c2ccc(Br)cc12 | inconclusive [inhibitor, partial curve] | –
O=C(NC1CCS(=O)(=O)C1)c1ccc(-c2ccc(Br)cc2)o1 (stereo not drawn) | active: 11.2 µM | –
COc1cccc(NC(=O)CC(=O)c2ccc([N+](=O)[O-])cc2)c1 | inconclusive [inhibitor, partial curve] | –
NNc1nc2sc3c(c2c(=O)n1Cc1ccccc1)CCC3 | inconclusive [inhibitor, single point] | –
Fc1ccc(CN2CCCN(Cc3nc(-c4ccc5c(c4)OCO5)no3)CC2)cc1 | – | inactive: -14.1%
CN(C)S(=O)(=O)c1ccc2[nH]cc(/C=C/c3nc4ccccc4c(=O)n3-c3ccccc3)c2c1 | inconclusive [inhibitor, partial curve] | –
CN1/C(=C/C=N/n2cnnc2)C(C)(C)c2ccccc21 | inconclusive [inhibitor, single point] | –
COc1ccc(NC(=O)CSc2ncccc2C(=O)OC(C)C)cc1OC | active: 7.94 µM | –
N#Cc1ccc(CN2CCN(C(=O)CN3C(=O)NC4(CCCC4)C3=O)CC2)cc1 | inconclusive [inhibitor, single point] | –
CCN(CC)P(=O)(Nc1cccc(C(F)(F)F)c1)c1ccc(N(C)C)cc1NC(=O)c1ccco1 (stereo not drawn) | inconclusive [inhibitor, single point] | –
Cc1cc(Cl)c(OCCOCCN2CCC(C)CC2)c(Br)c1 | inconclusive [inhibitor, single point] | –
